In the RNAGym collection of RNA variant scans (doi:10.1073/pnas.2313332121):
Variants at the floor of the assay are shown more often than the library holds them.

B1: TPR 5TU (parent)
chain: GGAUCUUCUCGAUCUAACAAAAAAGACAAAUCUGCCACAAAGCUUGAGAGCAUCUUCGGAUGCAGAGGCGGCAGCCUUCGGUGGCGCGAUAGCGCCAACGUUCUCAACUAUGACACGCAAAACGCGUGCUCCGUUGAAUGGAGUUUAUCAUG

Variants of: B1
Assay: polymerase ribozyme fitness, log enrichment relative to wild type (log ratio); higher = more active; in vitro selection for triplet polymerase activity
Procedure, shortened: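 Mutant libraries for each subunit of a heterodimeric triplet polymerase ribozyme were made by PCR and then transcribed. Each library underwent one round of in vitro selection in triplicate: annealing with a biotinylated primer, the partner subunit and triplets, frozen incubation at −7 °C, gel excision of extended constructs, streptavidin-bead capture and RT-PCR. Input and output libraries were Illumina-sequenced, and only genotypes with ≥10 input reads and ≥1 read per output were kept. Fitness is the logarithm, base 2, of genotype enrichment over wild-type enrichment, computed from inverse-variance-weighted replicate averages.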

Row | Variant | polymerase ribozyme fitness (log ratio)
1 | U31C C43U G50A U78G A106C | ≤ -4.2
2 | C32A A37C A52G C75A C87G C105G A120U | ≤ -4.2
3 | C32G G59C U61A U82A G84U U134G G140C | ≤ -4.2
4 | U31G G46C G50U C95G C116U C131G A142U | ≤ -4.2
5 | U31A G68C C76A C85A | ≤ -4.2
6 | C32A A89G C95U U101G U134G G141C | ≤ -4.2
7 | U31A C95G C125A | -1.34
8 | C32G G48A G68A C103A C114A U146A | ≤ -4.2
9 | C32G U53G U111G | ≤ -4.2
10 | U31C C36U C38G G81A C85U A107G C108A | ≤ -4.2
11 | C32G A41C C85U | ≤ -4.2
12 | C32A G86U A97G C105U U135G G140C | ≤ -4.2
13 | U31A C57U C93U A106G G117C C129A G140U U151A | ≤ -4.2
14 | U31G A49C C54A | ≤ -4.2
15 | C32G U33G C43U G83C U111C | ≤ -4.2
16 | C32G G83A C85G C108G G124A U135G | ≤ -4.2
17 | U31G U56A G136A A147C | -0.143
18 | U31G A98G A138U | ≤ -4.2
19 | C32A A97U U127A | ≤ -4.2
20 | C32G G46A A52G U53A A60U C87A A89U A142U | ≤ -4.2
21 | C32G G58A G84A A107G G124C U130G | ≤ -4.2

Row | Variant | polymerase ribozyme fitness (log ratio)
22 | U31C U102A | 0.128
23 | U31C U45A G59C C96A G140C U151A | ≤ -4.2
24 | U31G A37C G126U | -2.65
25 | U31G G48C G50A C96A A120U U145A | ≤ -4.2
26 | U31G U56G C85G U101G A120U G140U | ≤ -4.2
27 | U31C G48U G59C C69G U77A | ≤ -4.2
28 | U31A C76U C116U U127G | ≤ -4.2
29 | U31A C35U G68C C79A G84A C103G C105A | ≤ -4.2
30 | C32A C51A C54A G92A A97U U146C | ≤ -4.2
31 | U31C G34A U78C G83C U145G | ≤ -4.2
32 | U31A C43U U44G G62A G71A U90G A91C | ≤ -4.2
33 | U31C U55A G136U A150G | -1.81
34 | U31A G59C G65A C75G C85A | ≤ -4.2
35 | C32G C51U C63A C103A | ≤ -4.2
36 | U31A C32A G59A C93G A113U A150C | ≤ -4.2
37 | C32G G58C G62C C79G C96U A113C | ≤ -4.2
38 | U31C G34A C69G C85U U134C | -1.39
39 | U31C U56A G58C A98U C149U | 0.414
40 | U31C C38U C87G A115G | ≤ -4.2
41 | C32G U44A A110U U144G | ≤ -4.2
42 | U31A G86A U134C | -0.431

Row | Variant | polymerase ribozyme fitness (log ratio)
43 | C32A U61A G81C U82A G88A C96A C108U C123G U151C | ≤ -4.2
44 | U31C C35A C105A | ≤ -4.2
45 | U31C A52U C75G C95U U145C | ≤ -4.2
46 | C32G G68A A73G G86A | ≤ -4.2
47 | U31C C35U G68C G92U U104A A115U A119C G143A | ≤ -4.2
48 | C32G U53A C79U G140U | -4.06
49 | C32G U56A C76A C85G A89G C131U A137G U151G | ≤ -4.2
50 | U31A U45A U55G C85U C95G A120G A142U | -4.06
51 | U31G U90G | ≤ -4.2
52 | U31A C38U C95U C96A | -1.16
53 | U31G U44G C75U C96A C131G | ≤ -4.2
54 | C32A C54U G58C C85A C105G A113C G136U U139C | ≤ -4.2
55 | C32A G86U | ≤ -4.2
56 | C32G A91C G117U A137U | ≤ -4.2
57 | U31C U55A G67C G80A C85G | ≤ -4.2
58 | C32G A49C C87G C103G C114A | ≤ -4.2
59 | U31A U45C G71A C87U A97G C105U G117A U148A | ≤ -4.2
60 | U31C A37G C57G U61G U102G G128A G141U | ≤ -4.2
61 | U31G C57G A60C C87G | ≤ -4.2
62 | U31C G65U C69U G86A U151A | ≤ -4.2
63 | U31C G83C U111C G152A | -3.66

Row | Variant | polymerase ribozyme fitness (log ratio)
64 | U31G C32A U101C G126A U148C | ≤ -4.2
65 | U31G U33A A60G G81C C93A | ≤ -4.2
66 | C32G U44A U56G C87U U139G | ≤ -4.2
67 | U31G G50C A52C C57U | ≤ -4.2
68 | C32G G48A G62C C96U C114A | ≤ -4.2
69 | C32A C72G G92C A150C | ≤ -4.2
70 | U31C U44G U77C C93U G117A A138C U145G U151A | ≤ -4.2
71 | C32A C87A | ≤ -4.2
72 | C32A C87U | -3.44
73 | U31G C32G A47C C95G A121C U134A G141C | ≤ -4.2
74 | C32G A47G U55A | ≤ -4.2
75 | C32G C54A C75G C129U | ≤ -4.2
76 | U31G G71U | ≤ -4.2
77 | C32A G83U A98G A120U A150C | ≤ -4.2
78 | U31G C99U U145G | -0.861
79 | U31C U55A U101C | 0.401
80 | U31A G58A U61A G84U A89C | -3.15
81 | C32G G59A G86A C125A C149G | ≤ -4.2
82 | U31G C76A C93G | ≤ -4.2
83 | U31A U45A C87G U101G | ≤ -4.2
84 | U31C G59C G68C G83A C99U | ≤ -4.2
